Our source for the z-score values is PubChem BioAssay AID488969 (Vanderbilt High Throughput Screening Facility, 2010).

The full ranking holds about 110,000 compounds; the median of “z-score” is about -0.1, and the highest 2% start at about 2. The list shows a part of the results. The source made the active and inactive calls.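 The calls were made as follows: active = z-score in the third read window above 3 or below -3; inactive = the rest.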

This assay deals with Metabotropic glutamate receptor 8 (Rattus norvegicus) (UniProt P70579). The assay is described as follows: rat mGluR8 modulators via GIRK flux, primary screen, cell-based, thallium flux, HTS (AID 488969). To be noted: HEK293 rat mGluR8, GIRK (G protein-gated inwardly rectifying potassium channel) thallium flux, FluoZin2; at 10 µM; stronger effect = higher value; submaximal glutamate (EC20) added with thallium.
UniProt P70579, sequence (P70579 whole entry, looked up): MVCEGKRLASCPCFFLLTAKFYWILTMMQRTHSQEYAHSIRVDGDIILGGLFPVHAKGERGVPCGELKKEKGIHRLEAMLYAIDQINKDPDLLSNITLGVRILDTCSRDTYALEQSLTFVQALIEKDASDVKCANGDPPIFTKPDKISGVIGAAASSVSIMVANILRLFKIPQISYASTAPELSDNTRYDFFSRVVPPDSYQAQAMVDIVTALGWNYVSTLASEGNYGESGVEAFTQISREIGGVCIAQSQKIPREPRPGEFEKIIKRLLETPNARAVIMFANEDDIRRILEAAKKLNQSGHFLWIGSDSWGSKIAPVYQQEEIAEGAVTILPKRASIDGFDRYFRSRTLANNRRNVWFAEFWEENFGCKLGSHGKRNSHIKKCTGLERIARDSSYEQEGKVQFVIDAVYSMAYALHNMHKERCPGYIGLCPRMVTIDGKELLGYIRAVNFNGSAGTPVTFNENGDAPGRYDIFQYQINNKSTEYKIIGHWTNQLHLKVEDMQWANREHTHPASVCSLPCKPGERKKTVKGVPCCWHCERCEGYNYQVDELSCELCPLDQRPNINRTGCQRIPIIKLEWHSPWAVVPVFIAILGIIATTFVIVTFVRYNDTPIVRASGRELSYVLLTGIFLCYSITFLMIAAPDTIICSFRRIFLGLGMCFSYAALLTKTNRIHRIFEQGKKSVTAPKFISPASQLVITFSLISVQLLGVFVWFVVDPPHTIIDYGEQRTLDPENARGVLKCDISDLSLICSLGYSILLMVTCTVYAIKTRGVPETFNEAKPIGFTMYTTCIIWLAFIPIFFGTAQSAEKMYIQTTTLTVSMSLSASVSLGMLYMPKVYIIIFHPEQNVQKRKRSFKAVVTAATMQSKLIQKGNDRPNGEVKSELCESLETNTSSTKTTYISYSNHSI
`CC(C)COC(=O)c1nnsc1NC(=O)Nc1ccccc1`: the z-score was found to be 0.142.
Next, `CCN1CCN(C(=O)c2ccc(Cl)c(S(=O)(=O)N3CCOCC3)c2)CC1`: -0.568.
To `COC(=O)c1[nH]c2ccc(Br)cc2c1NC(=O)CN1CCCCC1CCO` (configuration not stated) belongs -0.0868.
The compound `Oc1ccc(-c2n[nH]c(=S)n2-c2ccc3c(c2)OCCO3)cc1` returned a z-score of -0.229.
Next, `Cc1cc(C(=O)NCc2cccs2)no1`: -0.109; `CCn1cnc2cc(NS(=O)(=O)c3ccc(C)cc3)ccc21`: -0.424; `Cc1cc(NC(=O)CSc2nc3c([nH]c4ccccc43)c(=O)n2-c2cccc(C(F)(F)F)c2)no1`: 0.588.
Next, `Cc1cc(C)c2c(CC(=O)N(CCC#N)Cc3cccnc3)coc2c1`: -0.0341.
Next, `CCn1cc(C(=O)NCCOC)c(=O)c2ccc(C)nc21`: 0.601; `CNc1oc(-c2cccc3ccccc23)nc1C#N`: 0.758; `S=c1[nH]nc(COc2ccccc2)n1Cc1ccccc1`: 0.364.
`COC(=O)c1ccc(CNC(=O)COC(=O)C23CC4CC(CC(C4)C2)C3)cc1` displayed a z-score of 0.179.
To `CC(=O)Nc1ccc2c(c1)CCCN2C(=O)c1ccccc1` belongs -0.0583; to `CCOC(=O)CCSc1nc2c(c(C(F)(F)F)c1C#N)CCC2`, -0.394.
Next, `O=C(/C=C/c1ccc(Cl)cc1)NC(=S)Nc1ccc(NC(=O)c2ccco2)cc1`: -0.669; `COc1ccc(/C=C/C(=O)Nc2ccc(-c3nnc4n3CCCCC4)cc2)c(OC)c1`: -0.328.
As to `CCc1ccc(S(=O)(=O)N(C(=O)c2ccncc2)c2ccc(OC(=O)c3ccncc3)cc2)cc1`, the z-score was -0.659.
Next, `CCN(CC)CCCn1c(C)cc2c(c1=O)C(c1ccc(OC)c(OC)c1OC)C(C#N)=C(N)O2` (configuration not stated): -0.47; `O=C(CNC(=O)c1ccc(Cl)cc1)OCC(=O)c1ccc2c(c1)OCCO2`: -0.0625.
To `CN1CCN(Cc2cccc(Oc3ccc(Cl)cc3)c2)CC1` belongs active: 4.
The compound `COc1ccc(-c2cc(C(=O)Nc3c(C)nn(Cc4ccccc4Cl)c3C)no2)cc1OC` yielded a z-score of -0.0235.
In the case of `CCCOC(=O)CSc1nnc(-c2cc(OC)c(OC)c(OC)c2)o1`, the z-score was -0.52.
The compound `COc1ccc(C2Nc3ccccc3C(=O)N2O)cc1CN1CCOCC1` (configuration not stated) had a z-score of 0.994.
Next, `CCCC1C2C(=O)N(c3ccc(OC)cc3)C(=O)C2ON1c1ccccc1` (configuration not stated): -0.375.
Next, `O=C(C(=O)N1CCCc2ccccc21)N1CCCc2ccccc21`: 0.0396.
`COc1ccc2nc3oc(C(=O)N4CCN(c5cccc(C(F)(F)F)c5)CC4)cc3cc2c1` came in with a z-score of 0.0948.
`C=CCn1c(=O)c2ccccc2n2c(SCC(N)=O)nnc12` yielded a z-score of -0.0528.
To `CCNC(=O)N1CCNC(=O)C1CC(=O)Nc1ccc(C(=O)OCC)cc1` (configuration not stated) belongs -0.0401; to `Cc1ccc(CNCC(O)(c2ccc(F)cc2)c2ccc(F)cc2)cc1`, 0.221.
Next, `CCN(c1ccccc1)c1ncnc2c1cnn2-c1ccccc1`: -0.478; `O=C(NCc1ccc2c(c1)OCO2)c1cccc(S(=O)(=O)N2CCOCC2)c1`: 0.239.
To `COc1ccc(-c2cc(C(F)(F)F)n3ncc(C(=O)NCC4CCCO4)c3n2)cc1OC` (configuration not stated) belongs -0.475.
In turn, `CC12COC3(C(=O)NCCc4ccccc4)CC1CCC32C` (configuration not stated) gave a z-score of -0.0777.
Next, `c1coc(-c2nc3c([nH]2)CCc2nonc2-3)c1`: -0.161; `CCCCC(c1nnnn1CS(=O)(=O)c1ccc(C)cc1)N1CCN(c2ccccc2)CC1` (configuration not stated): 0.13; `Cc1ccc(F)cc1NC(=S)NCCc1ccccc1`: 0.631.
Consider `COc1cccc(SCc2noc(C(=O)NC(C)C)c2C(=O)O)c1`, for which the z-score came to 0.165.
`COc1ccc2c(c1)-c1nc(/N=C/c3ccccc3O)sc1CC2` returned a z-score of 0.0977.
In turn, `COC(=O)C1=C(O)/C(=C\c2ccc(CNS(=O)(=O)c3ccc(Cl)cc3)o2)N=C1C` showed a z-score of 0.0108.
Next, `Cc1ccc(NC(=O)CSc2nnc(CSc3nc(C)cc(C)n3)n2Cc2ccco2)c(C)c1`: -0.976; `CC(C)(C)n1nc2c(c1NC(=O)c1ccc(S(=O)(=O)N3CCCC3)cc1)CSC2`: 0.622.
Next, `COc1cc2c(cc1NC(=O)C(C)N1CCN(S(=O)(=O)c3ccc(C)c(C)c3)CC1)oc1ccccc12` (configuration not stated): 0.0628; `O=C(Cn1cc2c(n1)CCCC2)NCCCN1CCN(Cc2ccccc2)CC1`: -0.235; `O=S(=O)(NCCNS(=O)(=O)c1cccs1)c1cccs1`: -0.0845.
To `O=C(Nc1ccc(C(=O)N2CCCC2)cc1)c1ccc2c(c1)OCO2` belongs -0.179; to `CC(C)(C)NC(=O)CSC(=Nc1cccc(F)c1)NC#N`, -0.0036; to `O=C(Cn1cc(C(F)(F)F)ccc1=O)N1CCN(S(=O)(=O)c2ccc(Cl)cc2)CC1`, 0.613.
In turn, `Cc1cc2cc3c(cc2nc1SCC(=O)OC(C)C)OCO3` came in with a z-score of -0.048.
`CCCCN(CCCC)CC1OCc2ccccc2CO1`: the z-score is -0.236.
Next, `CN1c2ccccc2C(C)(C)C12C=Nc1c(cc(N3CCOCC3)c3ccccc13)O2` (configuration not stated): -0.341; `COc1ccc(CN(C)C(c2ccccc2)c2nnnn2-c2ccccc2C)c(OC)c1C` (configuration not stated): 0.0742; `CCOC(=O)C1CCN(C(=O)Nc2ccc(OC)c(OC)c2)CC1`: -0.541.
To `CCOC(=O)C(=O)Nc1ccc(F)cc1` belongs -1.25; to `Cc1cccc(OCCCSc2nc3ccccc3[nH]2)c1`, 0.357.
Compound `COc1ccc2c(c1)cc1n2CCN=C1N` had a z-score of 0.0614.
Next, `O=[N+]([O-])c1ccc2nc(SCc3cn4ccccc4n3)[nH]c2c1`: 0.0122.
As to `COc1ccccc1CNc1n[nH]c(NCc2ccccc2OC)n1`, the z-score is -0.0655.
As to `O=C1Nc2ccc(Br)cc2C1=Nc1ccc(-c2nnc3n2CCCCC3)cc1`, the z-score stood at 0.0931.
Next, `CC(=O)c1ccc(OCC(C)C)c(CN2CCCCC2)c1`: 0.157; `O=C(/C=C\c1ccco1)Nc1cc([N+](=O)[O-])ccc1F`: -0.392.
In turn, `O=C(O)c1ccc(NC2=C(N3CCOCC3)C(=O)c3ccccc3C2=O)cc1` showed a z-score of 0.558.
To `Cc1ccc(CN2CCS(=O)(=O)CC2)cc1` belongs -0.0985; to `c1cncc(-c2csc(NCc3ccco3)n2)c1`, -0.505; to `O=C(CCCOc1ccccc1)NC1CCCc2ccccc21` (configuration not stated), -0.271.
To `Cc1cc[n+](CC(=O)c2ccc3c(c2)OCCO3)cc1` belongs -0.107; to `CCC(=O)N1CCc2cc(Br)cc(S(=O)(=O)CCC(=O)NCc3ccco3)c21`, -0.0579; to `CCc1nnc(SCC(=O)Nc2ccc3c(c2)OCO3)o1`, 1.2.
On to `CC(C)c1ccc(NC(=O)CCN2C(=O)c3ccc([N+](=O)[O-])cc3C2=O)cc1`, for which the z-score is -0.171.
To `CCNc1nc(N)nc(Oc2ccc(C(=O)OC)cc2)n1` belongs -0.158.
Next, `C[C@@H](Nc1nc(-c2ccccc2)nc2c1oc1ccccc12)C(=O)O`: -0.8; `CC(C)[C@@H](C(=O)OCC(=O)Nc1ccc2c(c1)OCO2)N1C(=O)c2ccccc2C1=O`: -0.283.
Next, `COc1ccc(C2=NN(C(=O)c3cccnc3)C(c3ccccc3)C2)cc1` (configuration not stated): -0.497; `CNC(=O)C(=O)NCC1OCCCN1S(=O)(=O)c1cccs1` (configuration not stated): -0.354; `COc1ccc(C(=O)Cn2c(Br)nc3c2c(=O)n(C)c(=O)n3C)cc1`: -0.191.
For `Cc1ccc(S(=O)(=O)n2c3ccc(Cl)cc3c3nc(C)sc32)cc1`, the z-score is -0.333.
`COc1ccc(C)cc1NC(=O)C(OC(=O)c1ccc([N+](=O)[O-])o1)c1ccccc1` (configuration not stated) gave a z-score of -0.35.
The compound `CSC(=S)N/N=C/c1c[nH]c2ccccc12` showed a z-score of 1.
Next, `COc1ccc(N(C)C(=S)Nc2ccc3nc(C)c(C)nc3c2)cc1`: -0.172.
To `Cn1c2c(c(=O)n(C)c1=O)[C@@H]1c3c(ccc4ccccc34)OC[C@@H]1CO2` belongs -0.213; to `COc1ccc2c(c1)CC/C(=C\C=C\c1ccccc1)C2=O`, -0.177; to `COc1ccc(CNC(=O)C2CCCN(S(=O)(=O)c3cnc[nH]3)C2)cc1` (configuration not stated), -0.309.
Next, `O=C(NCCCN1CCCC1=O)c1ccc2c(c1)NC(=O)C(N1CCOCC1)S2` (configuration not stated): -0.0714.
Consider `COc1ccc(C)cc1-n1nnnc1SCC(=O)Nc1cccnc1Cl`, for which the z-score was -0.0944.
Compound `COc1cc2cc(C(=O)O)[nH]c2c(OC)c1OC` displayed a z-score of 0.221.
Next, `c1ccc2c(c1)oc1c(N3CCN(Cc4ccc5c(c4)OCO5)CC3)ncnc12`: 0.968; `COCC(C)n1c(C)cc(C(=O)CSc2nc3ccccc3c(=O)[nH]2)c1C` (configuration not stated): -0.0493; `CCCC(=O)N1c2ccccc2NC2=C(C(=O)CCC2)C1c1ccc(F)cc1` (configuration not stated): 0.527.
Next, `Cc1cc(=O)[nH]c(SCc2nnnn2-c2ccc(Cl)cc2)n1`: 0.00954; `CCn1c(SCc2nc3ccccc3[nH]2)nnc1-c1ccncc1`: -0.167.
In turn, `COCc1cc(=O)[nH]c2cc(NC(=O)C3CC3)c(C)cc12` registered a z-score of 0.0867.
On to `COc1cccc(NC(=O)CN2CCN(S(=O)(=O)c3ccc(F)cc3)CC2)c1`, for which the z-score is -0.138.
Next, `Cc1ccc2c(c1)-c1nc3ccccc3cc1C2=NC1CCCCC1`: -0.156.
To `CCN(CC)C(=O)CSCc1cnn(-c2ccccc2)c1-n1cccc1` belongs 0.216.
Next, `COc1cc(C(=O)OCC(=O)c2cc(C)n(C)c2C)cc(NC(=O)c2ccco2)c1OC`: -1; `Cc1nc2ccc(C(=O)OCc3ccccc3Br)cc2nc1C`: -0.339; `Cc1ccc(NC(=O)CSc2nnc([C@@H]3CCCN3C(=O)OC(C)(C)C)o2)c(C)c1`: -0.259.
`O=[N+]([O-])c1cc(C(F)(F)F)ccc1Sc1ccc2ccccc2n1` returned a z-score of -0.0338.
Next, `COc1ccc(-n2c(N)c(C(=O)NCC3CCCO3)c3nc4ccccc4nc32)c(OC)c1` (configuration not stated): -1.74; `N#CC(c1ccccn1)(c1ncc(C(F)(F)F)cc1Cl)N1CCOCC1` (configuration not stated): -0.113; `CCN1CCC2(CC1)C(C#N)=C(N)Oc1c2sc2nc(C)cc(C)c12`: -1.
To `Cc1ccc(S(=O)(=O)N[C@H](C(=O)Oc2ccc3c(C(F)(F)F)cc(=O)oc3c2)c2ccccc2)cc1` belongs -0.201.
Next, `O=C(O)COc1ccc(S(=O)(=O)NCCc2ccccc2)cc1`: -0.144; `COc1cc(OC)c(C(=O)Nc2cccc(C(C)=O)c2)cc1OC`: 0.271.
As for `Cc1cc(SCC(=O)NN=C2CCN(C(C)C)CC2)c(C)cc1Br`, the z-score was -0.257.
Compound `Cc1onc(-c2ccccc2)c1C(=O)N1CCCSC1=Nc1ccccc1` registered a z-score of -0.384.
To `O=C(NCc1ccc2c(c1)OCO2)C1CCCN1C(=O)Nc1cccc(Cl)c1` (configuration not stated) belongs -0.268; to `CC1(C)CC(=O)C(C(c2ccncc2)C2C(=O)CC(C)(C)CC2=O)C(=O)C1`, -0.21.
